Source: patent US20220348651A1, “ENTPD2 ANTIBODIES, COMBINATION THERAPIES, AND METHODS OF USING THE ANTIBODIES AND COMBINATION THERAPIES” (Novartis AG, priority 2019, published 2022)

T1: Human ENTPD1 (Homo sapiens, UniProt P49961)
T1 construct: expressed in transfected cells; host or cells: NIH/3T3 (retroviral transduction, FACS-sorted)
T1 sequence (P49961 1-510): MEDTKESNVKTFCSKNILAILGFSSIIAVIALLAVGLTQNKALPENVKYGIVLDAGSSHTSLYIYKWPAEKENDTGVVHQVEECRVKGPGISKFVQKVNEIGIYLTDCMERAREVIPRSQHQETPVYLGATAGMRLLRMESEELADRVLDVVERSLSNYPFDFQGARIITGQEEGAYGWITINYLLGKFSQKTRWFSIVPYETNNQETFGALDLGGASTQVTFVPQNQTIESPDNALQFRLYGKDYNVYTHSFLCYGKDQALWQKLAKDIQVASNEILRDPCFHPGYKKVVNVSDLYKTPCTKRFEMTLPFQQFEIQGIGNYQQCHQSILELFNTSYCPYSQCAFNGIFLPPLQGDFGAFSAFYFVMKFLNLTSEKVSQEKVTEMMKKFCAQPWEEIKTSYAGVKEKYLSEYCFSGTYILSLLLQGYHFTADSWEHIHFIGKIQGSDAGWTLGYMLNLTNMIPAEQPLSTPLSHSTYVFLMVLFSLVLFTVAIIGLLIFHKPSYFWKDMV

B1: ANTI-HUMAN ENTPD2 MAB3 (antibody)
heavy: QVQLVQSGAEVVKPGASVKISCKASGYTFTDYNMDWVKQAPGQRLEWIGDINPKYDISTYNQQFKGKATITVDTSASTAYMELSSLRSEDTAVYYCARRGFFLYYGINYYYFDVWGQGTLVTVSSASTKGPSVFPLAPSSKSTSGGTAALGCLVKDYFPEPVTVSWNSGALTSGVHTFPAVLQSSGLYSLSSVVTVPSSSLGTQTYICNVNHKPSNTKVDKRV[here human IgG1 Fc without letters]
light: EIVLTQSPATLSASPGERITLSCSASSSVSYIHWYQQKPGQAPRLLIYSTSNLASGIPARFSGSGSGTFYTLTISSVEPEDAAVYYCHQWSSYPWTFGGGTKLEIKRTVAAPSVFIFPPSDEQLKSGTASVVCLLNNFYPREAKVQWKVDNALQSGNSQESVTEQDSKDSTYSLSSTLTLSKADYEKHKVYACEVTHQGLSSPVTKSFNRGEC
B2: ANTI-HUMAN ENTPD2 MAB8 (antibody)
heavy: QVQLQQSGPGLVKPSQTLSLTCAISGDSVSSSSAAWNWIRQSPSRGLEWLGRIYYRSKWYNDYAVSVKSRITINPDTSKNQFSLQLNSVTPEDTAVYYCARGSYVTSSYEGFDYWGQGTLVTVSSASTKGPSVFPLAPSSKSTSGGTAALGCLVKDYFPEPVTVSWNSGALTSGVHTFPAVLQSSGLYSLSSVVTVPSSSLGTQTYICNVNHKPSNTKVDKRV[here human IgG1 Fc without letters]
light: SYELTQPLSVSVALGQTARITCSGDNLPEKYAYWYQQKPGQAPVLVIYDDNKRPSGIPERFSGSNSGNTATLTISRAQAGDEADYYCQSYGKWGWTWVFGGGTKLTVLGQPKAAPSVTLFPPSSEELQANKATLVCLISDFYPGAVTVAWKADSSPVKAGVETTTPSKQSNNKYAASSYLSLTPEQWKSHRSYSCQVTHEGSTVEKTVAPTECS
B3: ANTI-HUMAN ENTPD2 MAB9 (antibody)
heavy: QVQLVQSGAEVKKPGSSVKVSCKASGGTFDSYAVSWVRQAPGQGLEWMGRIVPWLGHTQYAQKFQGRVTITADESTSTAYMELSSLRSEDTAVYYCARESPGYRYSFDVWDQGTLVTVSSASTKGPSVFPLAPSSKSTSGGTAALGCLVKDYFPEPVTVSWNSGALTSGVHTFPAVLQSSGLYSLSSVVTVPSSSLGTQTYICNVNHKPSNTKVDKRV[here human IgG1 Fc without letters]
light: SYELTQPLSVSVALGQTARITCSGDAIGEKYVYWYQQKPGQAPVLVIYDDNNRPSGIPERFSGSNSGNTATLTISRAQAGDEADYYCASYDLQQARWVFGGGTKLTVLGQPKAAPSVTLFPPSSEELQANKATLVCLISDFYPGAVTVAWKADSSPVKAGVETTTPSKQSNNKYAASSYLSLTPEQWKSHRSYSCQVTHEGSTVEKTVAPTECS
B4: ANTI-HUMAN ENTPD2 MAB10 (antibody)
heavy: QVQLVQSGAEVKKPGSSVKVSCKASGGTFDSYAVSWVRQAPGQGLEWMGRIVPWLGFTRYAQKFQGRVTITADESTSTAYMELSSLRSEDTAVYYCARESPGYRYSFDVWDQGTLVTVSSASTKGPSVFPLAPSSKSTSGGTAALGCLVKDYFPEPVTVSWNSGALTSGVHTFPAVLQSSGLYSLSSVVTVPSSSLGTQTYICNVNHKPSNTKVDKRV[here human IgG1 Fc without letters]
light: SYELTQPLSVSVALGQTARITCSGDAIGEKYVYWYQQKPGQAPVLVIYDDNNRPSGIPERFSGSNSGNTATLTISRAQAGDEADYYCASYDLQQARWVFGGGTKLTVLGQPKAAPSVTLFPPSSEELQANKATLVCLISDFYPGAVTVAWKADSSPVKAGVETTTPSKQSNNKYAASSYLSLTPEQWKSHRSYSCQVTHEGSTVEKTVAPTECS
B5: ANTI-HUMAN ENTPD2 MAB2 (antibody)
heavy: QVQLVQSGAEVVKPGASVKISCKASGYTFTDYNMDWVKQAPGQRLEWIGDINPKYDISTYNQQFKGKATITVDKSASTAYMELSSLRSEDTAVYYCARRGFFLYYGINYYYFDVWGQGTLVTVSSASTKGPSVFPLAPSSKSTSGGTAALGCLVKDYFPEPVTVSWNSGALTSGVHTFPAVLQSSGLYSLSSVVTVPSSSLGTQTYICNVNHKPSNTKVDKRV[here human IgG1 Fc without letters]
light: EIVLTQSPATLSASPGERITLSCSASSSVSYIHWYQQKPGQAPRLLIYSTSNLASGIPARFSGSGSGTFYTLTISSVEPEDAAVYYCHQWSSYPWTFGGGTKLEIKRTVAAPSVFIFPPSDEQLKSGTASVVCLLNNFYPREAKVQWKVDNALQSGNSQESVTEQDSKDSTYSLSSTLTLSKADYEKHKVYACEVTHQGLSSPVTKSFNRGEC

What was measured:
H520 cells = experiment: Cross reactivity: FACS binding to H520 cells (ENTPD3 and ENTPD8 expression); set-up: species or system human; settings: 50 nM antibody
Method: (§1) FACS screening: Specific binding of candidate antibodies to endogenously expressed ENTPD2 was assessed by flow cytometry. Cells were rinsed thoroughly with 1×PBS and treated with Accutase (Millipore #SCR005) to lift from growth plates and resuspended at approximately 1×10^5 cells/90 μL in 1× FACS buffer (2% FBS+0.1% NaN3 in PBS). In a 96-well U-bottom plate, 10 μL of 10× antibody solution in FACS buffer was pre-seeded and 90 μL of cell suspension was added. Cell were incubated for 30 minutes at 4° C., washed 1× with cold PBS and resuspended in 100 μL of 1:500 secondary antibody 1× FACS buffer (Allophycocyanin conjugated F(ab′)2 goat anti-human IgG, Fcγ specific; Jackson Immunoresearch, Cat#109-136-098). After additional incubation for 15 min at 4° C., cells were washed twice with PBS and resuspended in 100 μL of 1×FACS buffer with 4 μg/mL propidium iodide (Life Technologies, Cat#P3566). Geometric mean fluorescence intensity was calculated on live single cells using FlowJo software.
H520 cells were identified as a cancer cell line with ENTPD3 (Ct 25) and ENTPD8 (Ct 26) expression by Taqman and were used for selectivity screening.

Human ENTPD1 = biological target: T1, Human ENTPD1; experiment: Cross reactivity: FACS binding to human ENTPD1 expressing NIH/3T3 cells; settings: NIH/3T3-ENTPD1 cells; for Apparent FACS binding at 50 nM: 50 nM antibody
Method: as §1
(§2) Cross reactivity Human ENTPD1 (NP_001767) expressing NIH/3T3 cells were generated using a retroviral transduction approach. 72 hrs post transduction, engineered cells were stained with the anti-Human CD39/ENTPD1 APC-conjugated Antibody (R&D systems, Minneapolis, Minn.) and live cells that expressed human ENTPD1 were separated from the rest of the population via fluorescence activated cell sorting. Stable expression of ENTPD1 was periodically re-confirmed by FACS with the above described anti-Human CD39/ENTPD1 APC-conjugated Antibody (1:100).

NIH/3T3 cells = experiment: Cross reactivity: FACS binding to NIH/3T3 control cells; settings: 50 nM antibody
Method: as §1, §2

Molecule	Apparent FACS binding at 50 nM (H520 cells)	Apparent FACS binding at 50 nM (Human ENTPD1)	Apparent FACS binding at 50 nM (NIH/3T3 cells)	Apparent FACS binding (Human ENTPD1; cell printed as a bound in nM) [nM]
B1	No binding	No binding	No binding	–
B2	No binding	–	No binding	>100
B3	No binding	No binding	No binding	–
B4	No binding	No binding	No binding	–
B5	No binding	No binding	No binding	–
